Results: PMC4336329 (PLoS ONE, 2015)
Among all 310,000 compounds or so, about 2,200 (0.71%) showed an effect of 50% or more. The effect is printed as a negative number. This is one part of the list.

target: human ether-à-go-go-related gene (hERG) potassium channel (human, UniProt Q12809); experiment: primary screen, population patch clamp on CHO cells stably expressing hERG
Sequence (Q12809 whole entry, looked up): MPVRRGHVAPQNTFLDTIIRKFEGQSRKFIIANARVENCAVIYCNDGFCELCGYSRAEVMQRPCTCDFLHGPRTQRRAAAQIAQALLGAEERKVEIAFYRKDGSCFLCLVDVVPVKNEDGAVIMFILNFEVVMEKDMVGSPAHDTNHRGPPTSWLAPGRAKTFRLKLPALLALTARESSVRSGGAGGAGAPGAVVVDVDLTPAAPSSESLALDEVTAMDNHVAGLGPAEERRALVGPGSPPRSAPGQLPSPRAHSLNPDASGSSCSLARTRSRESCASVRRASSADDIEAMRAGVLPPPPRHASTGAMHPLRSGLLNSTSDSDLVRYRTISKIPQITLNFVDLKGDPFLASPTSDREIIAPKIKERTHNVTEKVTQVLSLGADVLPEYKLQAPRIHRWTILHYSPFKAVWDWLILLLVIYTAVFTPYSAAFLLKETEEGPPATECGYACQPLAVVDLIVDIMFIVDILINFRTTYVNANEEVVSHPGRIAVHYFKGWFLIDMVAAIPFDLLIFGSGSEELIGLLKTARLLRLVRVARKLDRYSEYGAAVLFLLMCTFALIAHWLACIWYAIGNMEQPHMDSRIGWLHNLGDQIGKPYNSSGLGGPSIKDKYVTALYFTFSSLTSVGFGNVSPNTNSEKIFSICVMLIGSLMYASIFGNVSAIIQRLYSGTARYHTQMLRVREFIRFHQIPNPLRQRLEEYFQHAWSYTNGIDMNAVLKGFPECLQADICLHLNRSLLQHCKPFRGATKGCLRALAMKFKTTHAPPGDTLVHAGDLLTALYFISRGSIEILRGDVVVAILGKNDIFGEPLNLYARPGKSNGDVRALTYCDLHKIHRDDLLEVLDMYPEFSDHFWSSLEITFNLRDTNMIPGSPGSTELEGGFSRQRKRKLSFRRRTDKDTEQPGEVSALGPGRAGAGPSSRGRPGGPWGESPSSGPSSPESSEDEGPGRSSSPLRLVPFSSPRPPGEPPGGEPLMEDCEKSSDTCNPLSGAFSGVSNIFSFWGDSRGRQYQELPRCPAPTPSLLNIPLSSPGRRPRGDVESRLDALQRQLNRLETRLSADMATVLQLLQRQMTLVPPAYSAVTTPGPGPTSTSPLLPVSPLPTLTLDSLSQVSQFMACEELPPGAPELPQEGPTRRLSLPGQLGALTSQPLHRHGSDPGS

Compound | hERG current change (%, negative = inhibition) at 1uM
Cn1cc(S(=O)(=O)N2CCCC2)cc1C(=O)N1CCN(c2cccc(Cl)c2)CC1 | 2.79%
FC(F)(F)c1nc(NCc2cccnc2)c2ccccc2n1 | 18.9%
CNC(=O)CS(=O)(=O)CC(=O)Nc1cc(OCCOC)c(Cl)cc1Cl | 11.1%
O=C(CC(=O)Nc1ccccc1C(=O)O)NNC(=O)Cc1ccccc1 | -2.4%
Cc1cc(Nc2ccccc2)nn1C(=O)c1ccc(Br)cc1 | 9.81%
Cc1cc(S(=O)(=O)Nc2ccc(F)cc2)c(C)s1 | 8.79%
COc1cccc(N=C(N)N)c1.Cl | 7.54%
COc1ccc(CN(C(=O)CN2C(=O)c3ccccc3S2(=O)=O)C(C(=O)NCC2CCCO2)c2ccco2)cc1 (centres unmarked) | -2.31%
Cc1nnsc1-c1c(C(=O)N2CCOCC2)c(C)nn1-c1ccc(Cl)cc1 | 8.85%
COc1cc(CNC(C)(C)C)ccc1OCC(=O)NC(C)(C)C | 15%
Cc1ccccc1C(=O)NC1CC2CCCC(C1)N2Cc1ccc(Cl)cc1 (centres unmarked) | -44.9%
CC(=O)c1c(C)nn(CC(O)COc2ccc3ccccc3c2)c1C (centres unmarked) | 7.91%
O=C(O)CC(NC(=O)C12CC3CC(CC(C3)C1)C2)c1cc([N+](=O)[O-])ccc1Cl (centres unmarked) | 2.33%
N#Cc1ccc(Cn2cc(C(=O)c3ccco3)c3ccccc32)cc1 | -12.8%
CCN(CC)c1ccc(/C=N/N=C(c2ccccc2)c2ccccc2)c(O)c1 | -0.682%
Cc1ccc(-c2nc3ccc(NS(=O)(=O)c4ccccc4)cc3[nH]2)o1 | 12%
Cc1ccc(N2CC(C(=O)NC3CCSC3=O)CC2=O)cc1 (centres unmarked) | 13.7%
Cc1nc2nc[nH]n2c(=O)c1CCOC(=O)c1c(F)cccc1F | 14.9%
Cc1cc(C)n(CC(=O)Nc2ccccc2)n1 | 9.86%

Compound | hERG current change (%, negative = inhibition) at 1uM
S=c1nc(NCc2cccc(Cl)c2)c2ccccc2[nH]1 | 11.6%
CC1CN(C(=O)CSc2nnc3c(Cl)cc(Cl)cn23)CC(C)O1 (centres unmarked) | 6.25%
CSCCC(NC(=O)c1cccc(S(=O)(=O)N2CCOCC2)c1)C(=O)Nc1cccc(C)c1 (centres unmarked) | 15%
CCCOc1ccc(-c2cc(C(F)(F)F)c(C#N)c(SCC(=O)O)n2)cc1 | 12.7%
O=C(NCC1CCCO1)C1CCCN1C(=O)NC1CCCCC1 (centres unmarked) | 12.8%
c1ccc(CN(Cc2ccco2)C(c2ccncc2)c2nnnn2C2CCCC2)cc1 (centres unmarked) | 1.34%
COC(=O)NNS(=O)(=O)c1ccc(C)cc1 | 21.2%
O=C(c1ccccc1)c1ccc2cc(O)ccc2c1 | 9.95%
CCN1CCN(c2nn3c(=O)c4ccccc4nc3c3ccccc23)CC1 | -71.5%
CC1(c2nnc(-c3ccncc3)o2)CC(c2c(Cl)cccc2Cl)=NO1 (centres unmarked) | -42.9%
CCOc1ccc(-n2c(C)cc(/C=N/Nc3nc(C)cc(=O)[nH]3)c2C)cc1 | 7.31%
CCn1c(SCC(=O)N(C)C)nc2cc(S(=O)(=O)N3CCOCC3)ccc21 | 1.16%
O=C1Nc2ccc(Br)cc2C(c2ccccc2)=NC1O (centres unmarked) | 10.6%
CCCc1nnc(SCC(=O)N2CCCC2)n1CC1CCCO1 (centres unmarked) | 2.42%
COC(=O)Cn1c(C)nc2c(sc3nc(C)cc(C)c32)c1=O | 0.966%
CCC/C(O)=C1\C(=O)CCCC1=NC(C)C(=O)O (centres unmarked) | 6.45%
COc1ccc(CC(=O)OC(C)C(=O)NCc2ccc3c(c2)OCO3)cc1OC (centres unmarked) | 14.8%
COC(=O)C1=C(C)N(C)C(C)=C(C(=O)OC)C1c1ccsc1 | 5.98%
CN1CCc2[nH]c3ccc(C(=O)NN)cc3c2C1 | 3.5%

Compound | hERG current change (%, negative = inhibition) at 1uM
Cc1cc(C)c(C)c(Cn2c(CO)nc3ccccc32)c1C | -5.02%
CCC(c1nnnn1Cc1ccc(OC)cc1)N1CCN(C(=O)c2ccco2)CC1.Cl (centres unmarked) | -13.8%
O=C(NCCNCc1ccc(F)cc1)c1ccco1.O=C(O)C(=O)O | 18.4%
O=C1CC(NS(=O)(=O)c2cc(F)ccc2F)CN1c1cccc(F)c1 (centres unmarked) | 12.6%
CC1CCN(S(=O)(=O)c2ccc(C(=O)N3CCCC3C(=O)O)cc2)CC1 (centres unmarked) | 10.8%
CC1Cc2ccccc2N1C(=O)Cn1c(=O)oc2cc(S(=O)(=O)N3CCCCC3)ccc21 (centres unmarked) | 14.4%
CN(C)c1ccc(/C=C2/SC(=O)N(CCN=C3NS(=O)(=O)c4ccccc43)C2=O)cc1 | 2.06%
CN1CCN(S(=O)(=O)c2cccc(C(=O)Nc3cc(C(F)(F)F)ccc3N3CCCCC3)c2)CC1 | 10%
Cc1cc(OC(=O)c2cccs2)ccc1C(C)C | 15.8%
O=C(NNS(=O)(=O)c1ccccc1[N+](=O)[O-])c1ccccc1[N+](=O)[O-] | 24.6%
COc1ccc(/C=C2\SC(=S)N(CCC(=O)N(CCO)Cc3ccccc3)C2=O)cc1OC | 10.6%
COc1ccc(CCC(=O)N2CCN(S(=O)(=O)c3ccc4ccccc4c3)CC2)cc1 | 5.35%
CCOC(=O)C1(Cc2ccccc2C)CCCN(C(=O)c2ccccn2)C1 (centres unmarked) | 9.05%
CCOc1ccc(C(=O)Nc2ccccc2NC(C)=O)cc1OCC | 15.4%
C=CCNc1sc(C(=O)c2ccccc2)c(N)c1-c1nc2ccccc2s1 | 8.33%
COc1ccc(C2C3=C(CC(C)(C)CC3=O)Nc3c2c(=O)[nH]c(=O)n3Cc2ccccc2)cc1 (centres unmarked) | 10.5%
CC(C)CCC(CC(C)O)c1n[nH]c(=S)n1-c1ccccc1 (centres unmarked) | 11.9%
O=c1cc(N2CCc3ccccc32)[nH]c(=O)n1-c1ccc(Cl)cc1 | 14%
